Measured values as given in PubChem BioAssay AID485344 (National Center for Advancing Translational Sciences (NCATS), 2010).
In all, about 340,000 compounds went through this assay and about 6,900 (2%) were called active. No stated cut-off is given here; in the data, active means inhibition above about 30%; inactive means below that, where a call was filed. The entries are a selection whose mix differs from that of the whole data set. The source gives no active or inactive call for entries shown without one.

target: D(2) dopamine receptor (Homo sapiens) (UniProt P14416); assay: HTS Assay for Allosteric Antagonists of the Human D2 Dopamine Receptor: Primary Screen for Antagonists; details: HEK293 TREx D2 cells, calcium flux, dopamine EC80; at 10 µM; stronger effect = higher value; further: 0% is about no effect
Procedure, shortened: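 Calcium mobilization kinetics were recorded at 1 s intervals in tetracycline-induced HEK293 T-REx D2 cells, first for 180 s after compound addition and then 180 s after EC80 dopamine.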

Chain of UniProt P14416 (P14416 whole entry, looked up): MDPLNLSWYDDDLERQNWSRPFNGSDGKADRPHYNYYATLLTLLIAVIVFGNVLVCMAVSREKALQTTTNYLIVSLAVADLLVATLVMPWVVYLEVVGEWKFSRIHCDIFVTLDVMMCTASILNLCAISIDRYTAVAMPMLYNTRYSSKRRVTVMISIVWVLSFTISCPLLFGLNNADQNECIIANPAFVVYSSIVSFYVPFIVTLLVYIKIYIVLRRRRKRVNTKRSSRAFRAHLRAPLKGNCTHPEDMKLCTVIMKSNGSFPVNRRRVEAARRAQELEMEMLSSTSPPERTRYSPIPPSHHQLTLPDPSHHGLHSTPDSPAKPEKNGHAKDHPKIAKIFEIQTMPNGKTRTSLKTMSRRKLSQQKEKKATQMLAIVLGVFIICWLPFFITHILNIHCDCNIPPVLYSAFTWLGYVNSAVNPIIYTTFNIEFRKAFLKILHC

| Structure (SMILES) | inhibition |
| --- | --- |
| CCOC(=O)c1ccccc1NC(=O)N1CCc2c(sc(C)c2CC)C1c1ccccc1 (stereo not given) | 4.81% |
| Cc1cccc(NC(=O)C(=O)NCC(c2ccc3c(c2)OCO3)N2CCOCC2)c1C (stereo not given) | 10.4% |
| CCc1ccc(C2c3c(-c4ccccc4O)n[nH]c3C(=O)N2Cc2ccncc2)cc1 (stereo not given) | -4.37% |
| COc1cc(OC)cc(C(=O)Oc2c(Sc3ccccc3)c(C)nn2C(C)(C)C)c1 | -3.61% |
| Cc1cn2c(=O)cc(COC(=O)c3cccc(NC(=O)COc4ccccc4Cl)c3)nc2s1 | -21.7% |
| CCc1ccc(CNC(=O)c2sc3ncccc3c2-n2c(C)ccc2C)cc1 | -1.5% |
| Cc1ccc(-c2nc3cc(C(C)C)ccc3o2)cc1NC(=O)c1cc2ccccc2o1 | 0.308% |
| O=C(Cn1ccn(-c2ccc(F)c(F)c2)c(=O)c1=O)Nc1ccccc1F | -0.585% |
| CCOc1ccccc1CNS(=O)(=O)c1ccc2c(c1)CCCN2C(C)=O | -1.19% |
| Cc1ccc(OCC(=O)Nc2ccc(S(=O)(=O)Nc3cc(C)nc(C)n3)cc2)c(Br)c1 | 18.9% |
| Cc1ccc(C)n1-c1nnc(N2CCCC(C(=O)NCc3ccc(Cl)cc3)C2)s1 (stereo not given) | -3.24% |
| COc1ccc(C2=CC(c3ccc(F)cc3)n3ncc(C(=O)Nc4ccc(C)cc4)c3N2)cc1 (stereo not given) | -9.63% |
| Cc1ccc(CN2CCc3nc(N4CCN(c5ncccn5)CC4)ncc3C2)cc1 | -9.21% |
| COc1cccc(NC(=O)CSc2nc3c(oc4ccccc43)c(=O)n2Cc2ccco2)c1 | 15.4% |
| Cc1ccccc1CN1CCN(C(=O)c2ccco2)CC1 | active: 69.7% |
| O=C(CCSc1nc(-c2ccco2)cc(C(F)(F)F)n1)Nc1cccc(O)c1 | 26.2% |
| Cc1cccc(NC(=O)NC(C)C(c2cccs2)N2CCOCC2)c1 (stereo not given) | active: 30.3% |
| Cc1ccc(N(CC(=O)NCCc2ccc(Cl)cc2)S(=O)(=O)N(C)C)cc1 | -0.662% |
| CCc1ccc(NC(=O)CN2CCN(Cc3ccccc3)S2(=O)=O)cc1 | -28% |
| Cc1oc2c(c(C)cc3oc(=O)c(CC(=O)NCCc4ccccc4F)c(C)c32)c1C | 7.4% |
| CCOC(=O)C1CCN(c2ncnc3c2c(-c2ccccc2)cn3-c2cccc(C)c2)CC1 | 5.8% |
| Cc1ccc(Cn2c(C(=O)O)c(CNCc3ccccc3Cl)c3ccc(C)cc32)cc1 | -15.4% |
| O=[N+]([O-])c1ccccc1OCCCNCc1ccccc1 | active: 37.6% |
| Cc1ccccc1-n1c(SCC(=O)Nc2ccc(Cl)cc2F)nnc1-c1cc2occc2n1C | -1.12% |

| Structure (SMILES) | inhibition |
| --- | --- |
| Cc1cccc(NC(=O)CCCn2c(C)c3cnn(-c4ccccc4)c(=O)c3c2C)c1C | -1.64% |
| Cc1nc(-c2ccc(Cl)cc2)sc1CCNC(=O)C(=O)Nc1ccc(F)cc1F | -14.6% |
| O=C(CCc1nc2ccccc2c(=O)[nH]1)Nc1ccc(Cl)c(Cl)c1 | active: 54.3% |
| O=C(O)c1cc(NC2(c3ccccc3)C(=O)c3ccccc3C2=O)ccc1Cl | -1.63% |
| O=C(Cn1c(=O)oc2cc(S(=O)(=O)N3CCCCC3)ccc21)Nc1cccc(Cl)c1 | 10.1% |
| Cc1ccccc1NC(=O)c1ccc(F)c(S(=O)(=O)N(C)Cc2ccccc2)c1 | 15% |
| CCc1ccc(NC(=O)c2cc(C(C)=O)n3ccccc23)cc1 | 12.2% |
| CC(C)c1ccc(C2N3CC4(C)CN2CC(c2ccccc2)(C3)C4=O)cc1 (stereo not given) | 17.2% |
| CCCc1nn2c(=O)cc(COC(=O)c3cccc(NC(=O)COc4ccc(F)cc4)c3)nc2s1 | 1.92% |
| Clc1cccc(N2CCN(c3ncnc4c3nc3n4CCCCC3)CC2)c1 | -2.46% |
| CCOC(=O)c1scc(-c2ccccc2)c1S(=O)(=O)Nc1ccccc1F | 22.9% |
| CCc1nn(-c2ccccc2)c2nc(-c3ccccc3OC)c3cc(OC)c(OC)cc3c12 | 16.5% |
| Oc1cc2c(cc1CN1CCN(c3cccc(C(F)(F)F)c3)CC1)CCC2 | active: 56.4% |
| CCOc1ccc(CCNC(=O)CCc2c(C)nc3c4c(C)cc(C)nc4nn3c2C)cc1 | 9.93% |
| Cc1cccc(C(=O)Nc2sc3c(c2C(=O)NCc2ccco2)CCCC3)c1 | 18.4% |
| COc1cccc(NC(=O)NCc2ccc3c(c2)CCN3C(=O)c2ccccc2)c1 | -1.35% |
| CCCN1C(=O)c2[nH]nc(-c3ccccc3O)c2C1c1ccc(OCc2ccccc2)c(OCC)c1 (stereo not given) | 10.5% |
| COc1ccc(C)c2sc(N(Cc3cccnc3)C(C)=O)nc12 | 4.51% |
| Cc1ccc(Cl)cc1NC(=O)CN1C(=O)c2cccc3cccc1c23 | 0.226% |
| CCc1ccc(NC(=O)C2CCC(CNS(=O)(=O)c3ccc4c(c3)CC(C)N4C(C)=O)CC2)cc1 (stereo not given) | 11.6% |
| COc1ccccc1OCCn1c(NC(=O)c2ccc(Cl)cc2)nc2ccccc21 | -5.39% |
| COc1ccc(-c2nc3ccccc3s2)cc1NC(=O)COc1ccccc1C | 19.2% |
| COc1ccc(CCNC(=O)c2ccc(Cn3c(=O)c4ccccc4n(Cc4cc(C)ccc4C)c3=O)cc2)cc1OC | 4.36% |
| Cc1ccc2oc(=O)c3cc(C(=O)Nc4ccc(F)cc4F)sc3c2c1 | 13.9% |

| Structure (SMILES) | inhibition |
| --- | --- |
| Cc1cc(C)c2nc(N3CCCC(C(=O)NCc4cccc(Br)c4)C3)sc2c1 (stereo not given) | -0.966% |
| Fc1ccc(Nc2nc3ccccc3c3nncn23)c(Cl)c1 | -5.19% |
| CCOc1ccccc1N1CCN(C(=O)c2cc3c(s2)CCC3)CC1 | active: 35.3% |
| CCOC(=O)c1ccc(N2CCN(c3ccccc3F)CC2)c(NC(=O)Nc2ccc(Cl)c(Cl)c2)c1 | -14.4% |
| Cc1ccc(NC(=O)c2oc3ccc(S(=O)(=O)N4CCCCCC4)cc3c2C)cc1Cl | 2.47% |
| CC(C)CSc1nnc(-c2ccccc2)c(-c2ccccc2)n1 | 3.27% |
| Fc1cccc(Cc2noc(CN3CCC(c4ccncc4)CC3)n2)c1 | active: 52.6% |
| CC(C)Oc1ccc(C(=O)Nc2ccc3c(c2)CCCN3C(=O)c2cccs2)cc1 | -5.2% |
| CCC1CCCCN1CCCNC(=O)CN1C(=O)c2cccnc2Oc2ccc(Cl)cc21 (stereo not given) | 11.5% |
| COc1ccc(Cn2c(CNC(=O)c3ccc(N(C)C)cc3)nc3cccnc32)cc1 | -10.3% |
| O=C(Cn1cc(SCc2ccc(C(F)(F)F)cc2)c2ccccc21)N1CCCCCC1 | -18.3% |
| Cc1nnc(NC(=O)CSc2nc3c([nH]c4ccccc43)c(=O)n2-c2ccccc2)s1 | 6.34% |
| O=C(Nc1c(C(=O)N2CCN(c3ccc(F)cc3)CC2)oc2ccccc12)c1c(F)cccc1F | -0.779% |
| Cc1cccc(N2CCN(CCCNC(=O)C3CCCN(c4ncnc5c4nc4n5CCCCC4)C3)CC2C)c1 (stereo not given) | active: 55.7% |
| COc1ccc(C2CC(=O)c3cc(-c4nc(-c5cccc([N+](=O)[O-])c5)cs4)c(=O)n(-c4ccc(C)c(C)c4)c3C2)cc1 (stereo not given) | -16.5% |
| Cc1nn(C(C)C(=O)NC2CCCCC2)c(=O)c2c1sc1ccccc12 (stereo not given) | 20.5% |
| Cc1ccc(-c2nnc(Nc3ccc(Br)cc3)c3ccccc23)cc1S(=O)(=O)N1CCN(C)CC1 | -26.7% |
| COc1ccc(CC(=O)NC2CC(=O)N(c3cccc(F)c3)C2)cc1 (stereo not given) | -6.18% |
| COc1ccc(CCNC(=O)Cc2c(C)c3c(cc(C)c4c(C)coc43)oc2=O)cc1OC | -5.97% |
| Cc1ccc(OCC(=O)Nc2ccc(OCc3cc(=O)n4cccc(C)c4n3)cc2)cc1C | 10% |
| CCN(C(=O)C(=O)Nc1ccc2nc3n(c(=O)c2c1)CCCCC3)c1ccc(F)cc1 | 3.77% |
| COc1ccc2c(CNCc3ccc(C)o3)c(C(=O)O)n(Cc3ccccc3C)c2c1 | -0.977% |
| CCN(c1ccccc1)C(CNS(=O)(=O)c1ccccc1)c1ccccc1 (stereo not given) | 11.2% |
| COc1ccc(CCNC(=O)c2ccc3c(c2)CCN3S(C)(=O)=O)cc1 | -19.1% |

| Structure (SMILES) | inhibition |
| --- | --- |
| Cc1c(C(=O)N(Cc2ccc(N(C)C)cc2)C2CCS(=O)(=O)C2)oc2ccccc12 (stereo not given) | 13.8% |
| COc1cc(C(=O)CC2(O)C(=O)N(Cc3ccccc3Cl)c3ccccc32)cc(OC)c1OC (stereo not given) | -4.11% |
| Cc1ccc2sc(N(Cc3cccnc3)C(=O)CCOc3ccccc3)nc2c1C | 23.3% |
| Clc1ccc(OCCOCCN2CCc3ccccc3C2)c(Cl)c1 | active: 64.4% |
| COc1ccc(OC)c(C2NC(=O)NC(C)=C2C(=O)Nc2cc(C)cc(C)c2)c1 (stereo not given) | -3.32% |
| O=C(c1ccc2c(c1)N(Cc1ccccc1)C(=O)c1ccccc1S2(=O)=O)N1CCN(c2ccccc2)CC1 | -2.22% |
| C=CCNC(=S)NNC(=O)C(CCC(C)C)CC(C)O (stereo not given) | active: 45.4% |
| CCOC(=O)C1(C)C=C(Nc2ccc(Br)cc2)C(=O)N1c1ccccc1 (stereo not given) | 28.2% |
| CCn1c(=NC(=O)c2ccc3c(c2)OCCO3)sc2c(C)ccc(OC)c21 | -8.36% |
| Cc1ccc(NC(=O)CSc2nc(C)c(Cc3ccccc3)c(=O)[nH]2)cc1C | 0.975% |
| Cc1ccc(C(=O)c2oc3ccccc3c2NC(=O)Cc2coc3cc(C)ccc23)cc1 | 2.03% |
| COc1ccc(Cn2nnc3c(=O)[nH]c(C4CCCN(C(=O)c5ccc(C)cc5)C4)nc32)cc1 (stereo not given) | -3.55% |
| COc1ccc(CCNC(=O)Cn2c(=O)n(-c3ccc(C)c(C)c3)c(=O)c3c(C)c(C)sc32)cc1OC | 17.1% |
| CCCCc1ccc(NC(=O)Cn2nnc3sc4c(c3c2=O)CCC(C)C4)cc1 (stereo not given) | 22.4% |
| CCc1ccccc1NC(=O)Cn1ccn(-c2cc(C)cc(C)c2)c(=O)c1=O | -27.4% |
| COc1ccc(NC(=O)c2ccc3oc(=O)c(S(=O)(=O)c4ccc(C)cc4)cc3c2)cc1OC | 1.48% |
| Cc1nn(S(=O)(=O)c2ccccc2)c(C)c1S(=O)(=O)N1CCC(C)CC1 | -17.4% |
| COc1ccc(OC)c(C(=O)c2c(N)c(-c3nc(-c4ccc(C)c(C)c4)cs3)c3ccccn23)c1 | -0.833% |
| Clc1cccc(CSc2nncn3c2cc2sccc23)c1 | -11.4% |
| Cc1ccccc1-c1nc(CS(=O)CC(=O)N2CCN(c3cc(Cl)ccc3C)CC2)c(C)o1 (stereo not given) | 0.552% |
| CCC(=O)N1c2ccccc2CC1C(=O)NCc1cccc(C)c1 (stereo not given) | -9.27% |
| CCN(CC)CCCNC(=O)Cn1nc(C)n2c(cc3sccc32)c1=O | 8.3% |
| COc1ccc(-c2noc(-c3ccc(N4CCN(c5ccc(OC)cc5)CC4)c([N+](=O)[O-])c3)n2)cc1 | -10% |
